Laboratory results published in the antibiotic and cytotoxicity screens of Wong et al. (2023).
This is one part of the list.

How the values were obtained:
HSkMC = human skeletal muscle cells; test: cytotoxicity call (relative viability < 0.9); details: 10 µM
HepG2 = test: cytotoxicity call (relative viability < 0.9); details: 10 µM
S. aureus RN4220 = test: growth inhibition call (relative growth <= 0.2); details: 50 µM

Row | SMILES | cytotoxicity call (HSkMC) | cytotoxicity call (HepG2) | growth inhibition call (S. aureus RN4220)
1 | C[C@@H]1CN([C@@H](C)CO)C(=O)c2c(c3ccccc3n2C)-c2ccccc2CO[C@@H]1CN(C)C(=O)Nc1cccc(Cl)c1Cl | inactive | inactive | inactive
2 | C[C@@H]1CN([C@@H](C)CO)C(=O)c2cccc(NC(=O)Nc3ccccc3)c2O[C@H]1CN(C)S(=O)(=O)c1cn(C)cn1 | inactive | inactive | inactive
3 | CC(C)CC#Cc1ccc2c(c1)O[C@@H](CN(C)C(=O)c1cnccn1)[C@H](C)CN([C@@H](C)CO)S2(=O)=O | inactive | inactive | inactive
4 | CC(C)N1CCOC[C@@]2(C1)CN(S(C)(=O)=O)CCO2 | inactive | inactive | inactive
5 | C[C@H]1CN([C@@H](C)CO)C(=O)c2cccc(NS(=O)(=O)c3cn(C)cn3)c2O[C@@H]1CN(C)Cc1ccncc1 | inactive | inactive | inactive
6 | C[C@H]1CN([C@@H](C)CO)C(=O)Cc2cc(NC(=O)Nc3cccc4ccccc34)ccc2O[C@H]1CN(C)Cc1ccc(C(F)(F)F)cc1 | active | active | inactive
7 | Cc1ccc(S(=O)(=O)N(C)C[C@H]2Oc3ccc(NS(=O)(=O)c4c(C)noc4C)cc3C(=O)N([C@H](C)CO)C[C@H]2C)cc1 | inactive | inactive | inactive
8 | C[C@H]1CN([C@@H](C)CO)C(=O)c2cccc(NS(=O)(=O)c3cn(C)cn3)c2O[C@@H]1CN(C)Cc1ccc(C(=O)Nc2ccccc2N)cc1 | inactive | inactive | inactive
9 | COc1ccc(CNC(=O)c2cc3c(c(-c4cccc(-c5ccc(C#N)cc5)c4)n2)[C@@H](CCO)N([S@](=O)C(C)(C)C)C3)cc1 | inactive | inactive | inactive
10 | C[C@H](CO)N1C[C@H](C)[C@H](CN(C)S(=O)(=O)c2cccs2)Oc2ncc(C#CCN(C)C)cc2C1=O | inactive | inactive | inactive
11 | C[C@@H]1CN([C@H](C)CO)C(=O)c2cc(NC(=O)Nc3ccc4c(c3)OCO4)ccc2O[C@@H](C)CCCCO[C@H]1CN(C)Cc1ccccc1 | inactive | inactive | inactive
12 | C[C@H](CO)N1C[C@H](C)[C@H](CN(C)C(=O)Nc2ccc(C(F)(F)F)cc2)Oc2ccc(NC(=O)CCCCCC(=O)Nc3ccccc3N)cc2C1=O | inactive | active | inactive
13 | Nc1ccc(C(=O)NCC(=O)O)cc1 | inactive | inactive | inactive
14 | C[C@H](CO)N1C[C@H](C)[C@H](CN(C)C(=O)NC2CCCCC2)Oc2ncc(C#CC(C)(C)O)cc2C1=O | inactive | inactive | inactive
15 | C[C@@H]1CN([C@H](C)CO)C(=O)Cc2cc(NC(=O)CCCN(C)C)ccc2O[C@@H]1CN(C)S(=O)(=O)c1ccc(Cl)cc1 | inactive | inactive | inactive
16 | Cn1cc(Cl)c(C(=O)O)n1 | inactive | inactive | inactive
17 | O=C(C[C@@H]1CC=CC[C@H](NC(=O)OCC2c3ccccc3-c3ccccc32)C(=O)O[C@H](c2ccccc2)CNC1=O)N[C@H](CO)Cc1ccccc1 | active | inactive | inactive
18 | COc1ccc(S(=O)(=O)Nc2ccc3c(c2)C(=O)N([C@@H](C)CO)C[C@H](C)[C@H](CN(C)CC2CCCCC2)OCCCC[C@@H](C)O3)cc1 | inactive | inactive | inactive
19 | Cc1noc(C)c1S(=O)(=O)Nc1ccc2c(c1)C(=O)N([C@@H](C)CO)C[C@@H](C)[C@@H](CN(C)C(=O)Nc1ccc(C(F)(F)F)cc1)OCCCC[C@H](C)O2 | inactive | inactive | inactive
20 | C[C@@H]1CN([C@H](C)CO)C(=O)c2cc(NC(=O)Nc3ccc(C(F)(F)F)cc3)ccc2O[C@@H]1CN(C)Cc1ccc2c(c1)OCO2 | inactive | active | inactive
21 | O=C(O)C1(Cn2ccnc2)CC1 | inactive | inactive | inactive
22 | C[C@@H]1CN([C@@H](C)CO)C(=O)Cc2cc(NC(=O)CCN3CCOCC3)ccc2O[C@@H]1CN(C)S(=O)(=O)c1ccc(F)cc1 | inactive | inactive | inactive
23 | C[C@H](CO)N1C[C@H](C)[C@H](CN(C)S(=O)(=O)c2ccc(F)cc2)Oc2ccc(NC(=O)CCN3CCOCC3)cc2C1=O | inactive | inactive | inactive
24 | COc1ccccc1C#Cc1ccc2c(c1)O[C@H](CN(C)C(C)=O)[C@@H](C)CN([C@@H](C)CO)S2(=O)=O | inactive | inactive | inactive
25 | C[C@H]1CN([C@@H](C)CO)C(=O)c2cccc(NC(=O)Nc3ccc4c(c3)OCO4)c2O[C@H]1CN(C)C(=O)Nc1ccc(C(F)(F)F)cc1 | inactive | inactive | inactive
26 | O=C(C[C@@H]1CC[C@@H](NC(=O)CN2CCOCC2)[C@@H](CO)O1)NC1CCC1 | inactive | inactive | inactive
27 | C[C@@H]1CN([C@@H](C)CO)C(=O)c2cc(NC(=O)Nc3ccc(C(F)(F)F)cc3)ccc2O[C@@H](C)CCCCO[C@@H]1CN(C)S(=O)(=O)c1ccc(F)cc1 | inactive | inactive | inactive

Row | SMILES | cytotoxicity call (HSkMC) | cytotoxicity call (HepG2) | growth inhibition call (S. aureus RN4220)
28 | O=C(C[C@@H]1CC[C@H]2[C@@H](COC[C@@H](O)CN2S(=O)(=O)c2ccc(Cl)cc2)O1)NCCN1CCCCC1 | inactive | inactive | inactive
29 | C[C@H]1CN([C@@H](C)CO)C(=O)Cc2cc(NC(=O)Nc3ccc(C(F)(F)F)cc3)ccc2O[C@@H]1CN(C)Cc1ccc(Cl)c(Cl)c1 | inactive | inactive | inactive
30 | Cc1ccc(S(=O)(=O)Nc2ccc3c(c2)C(=O)N([C@H](C)CO)C[C@@H](C)[C@@H](CN(C)Cc2ccc(-c4ccccc4)cc2)O3)cc1 | active | active | inactive
31 | COc1ccc(S(=O)(=O)N(C)C[C@@H]2Oc3ccc(NC(=O)CCC(F)(F)F)cc3CC(=O)N([C@@H](C)CO)C[C@@H]2C)cc1 | inactive | inactive | inactive
32 | O=c1c(-c2ccc(O)cc2)coc2c([C@@H]3O[C@H](CO)[C@@H](O)[C@H](O)[C@H]3O)c(O)ccc12 | inactive | inactive | inactive
33 | Cc1ccccc1S(=O)(=O)N1C[C@@H](O)COC[C@@H]2O[C@H](CC(=O)NCc3ccccc3Cl)CC[C@H]21 | inactive | inactive | inactive
34 | C[C@@H]1CCCCO[C@H](CN(C)S(=O)(=O)c2ccc(F)cc2)[C@H](C)CN([C@@H](C)CO)C(=O)c2cc(NC(=O)Cc3ccccc3)ccc2O1 | inactive | inactive | inactive
35 | C[C@H](CO)N1C[C@H](C)[C@@H](CN(C)Cc2ccc(Cl)c(Cl)c2)Oc2ccc(NC(=O)Nc3ccc4c(c3)OCO4)cc2C1=O | inactive | inactive | inactive
36 | C[C@H]1CN([C@@H](C)CO)S(=O)(=O)c2ccc(C#Cc3ccccc3F)cc2O[C@@H]1CN(C)CC1CCOCC1 | inactive | inactive | inactive
37 | C[C@H](CO)N1C[C@H](C)[C@H](CN(C)C(=O)Nc2ccc3c(c2)OCO3)Oc2ccc(NC(=O)Nc3cccc4ccccc34)cc2CC1=O | inactive | inactive | inactive
38 | CC(C)NC(=O)N(C)C[C@@H]1Oc2ccc(NS(=O)(=O)c3cccs3)cc2C(=O)N([C@H](C)CO)C[C@@H]1C | inactive | inactive | inactive
39 | NC(=O)CC(N)C(=O)O.O (configuration not stated) | inactive | inactive | inactive
40 | C[C@@H]1CCCCO[C@@H](CN(C)Cc2ccc3c(c2)OCO3)[C@H](C)CN([C@@H](C)CO)C(=O)c2cc(NC(=O)Cc3ccccc3)ccc2O1 | inactive | inactive | inactive
41 | O=C(Nc1ccc(C(F)(F)F)cc1)Nc1cccc(Cl)c1 | active | active | inactive
42 | C[C@@H]1CN([C@H](C)CO)C(=O)c2cccc(NC(=O)NC3CCCCC3)c2O[C@@H]1CN(C)Cc1ccc(Oc2ccccc2)cc1 | inactive | inactive | inactive
43 | COc1ccc(S(=O)(=O)Nc2cccc3c2O[C@@H](CN(C)C(=O)Nc2c(C)noc2C)[C@@H](C)CN([C@H](C)CO)C3=O)cc1 | inactive | inactive | inactive
44 | COc1ccc(NC(=O)N(C)C[C@H]2Oc3ccc(NS(=O)(=O)c4c(C)noc4C)cc3C(=O)N([C@H](C)CO)C[C@H]2C)cc1 | inactive | inactive | inactive
45 | Cc1noc(C)c1S(=O)(=O)Nc1cccc2c1O[C@H](CN(C)S(=O)(=O)c1ccc(Cl)cc1)[C@H](C)CN([C@@H](C)CO)C2=O | inactive | inactive | inactive
46 | O=c1n(-c2ccccc2)c(=O)n2n1CC(COc1ccccc1)=C1[C@@H](CCc3ccccc3)OB(O)C[C@@H]12 | inactive | inactive | inactive
47 | C[C@H](CO)N1C[C@H](C)[C@@H](CN(C)C(=O)Nc2ccc(N3CCN(C)CC3)cc2)OCc2cn(nn2)CCCC1=O | inactive | inactive | inactive
48 | C[C@H](CO)N1C[C@H](C)[C@@H](CN(C)C(=O)C2CCCCC2)OCCCC[C@H](C)Oc2ccc(NS(=O)(=O)c3ccc(F)cc3)cc2C1=O | inactive | inactive | inactive
49 | Cc1ccc(S(=O)(=O)N(C)C[C@H]2Oc3cc(C#Cc4ccncc4)ccc3S(=O)(=O)N([C@H](C)CO)C[C@@H]2C)cc1 | inactive | active | inactive
50 | C[C@H](CO)N1C[C@H](C)[C@@H](CN(C)C(=O)Nc2ccc(-c3ccccc3)cc2)OCc2ccccc2-c2ccccc2C1=O | inactive | inactive | inactive
51 | C[C@H]1CN([C@@H](C)CO)C(=O)CCCn2cc(nn2)CO[C@H]1CN(C)C(=O)Nc1ccc2c(c1)OCO2 | inactive | inactive | inactive
52 | C[C@H](CO)N1C[C@H](C)[C@@H](CN(C)S(=O)(=O)c2cn(C)cn2)Oc2c(NC(=O)c3ccncc3)cccc2C1=O | inactive | inactive | inactive
53 | CCSc1nc(-c2ccc(C)cc2)cc(C(F)(F)F)c1C#N | inactive | inactive | inactive
54 | COc1ccc(NC(=O)N(C)C[C@H]2OCCCC[C@@H](C)Oc3ccc(NC(=O)c4ccccc4)cc3C(=O)N([C@@H](C)CO)C[C@@H]2C)cc1 | inactive | inactive | inactive
